This test deals with GRB2 (endogenous complexes from cell lysate), P62993. As to the kind of experiment: GRB2 complex binding differential signal (pY peptide minus Ala control peptide) (fluorescence intensity units); higher = stronger GRB2 complex binding.

± gives the uncertainty stated by the source. This is one part of the list. A small y stands for phosphotyrosine.
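Also: phosphopeptide probes on the chip at 1–4 µM, lysate proteins bound in 20 mM Tris pH 7.0 buffer with 140 mM NaCl, 1% Triton X-100 and 5% glycerol.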

Take yTSSSG [TEC_519/A1]: the “GRB2 complex binding differential signal” value is, setting by setting: (MCF7) 3120 ± 920; (MCF10A) 2620 ± 820; (MDA-MB-231) 1270 ± 310; (T47D) 1470 ± 930.

On to yADPEE [SYK_352/A1], for which the “GRB2 complex binding differential signal” value reads like this: (MCF7) 2760 ± 250; (MCF10A) 1850 ± 540; (MDA-MB-231) 459 ± 440.

In the case of yYKAQT [SYK_525/A1], the “GRB2 complex binding differential signal” value runs as follows: (MCF7) 3660 ± 560; (MCF10A) 1580 ± 750; (MDA-MB-231) 1650 ± 380; (T47D) 1960 ± 1300.

Take yAQVQR [TENC1_483/A1]: the “GRB2 complex binding differential signal” value turned out to be 2510 ± 370 (MCF7), 1480 ± 350 (MCF10A), 465 ± 440 (MDA-MB-231) and 206 ± 850 (T47D).

In the case of yMDQAP [STAT5B_725/A1], the “GRB2 complex binding differential signal” value reads like this: (MCF7) 1390 ± 3300; (MCF10A) 1450 ± 680; (MDA-MB-231) 854 ± 320; (T47D) 414 ± 1200.

For yAVPPP [BCAR1_410/A1], the “GRB2 complex binding differential signal” value is, setting by setting: (MCF7) 5290 ± 3000; (MCF10A) 3430 ± 590; (MDA-MB-231) 2210 ± 850; (T47D) 2320 ± 990.

Turning to yTEGAE [TBB6_Y106/A1], the “GRB2 complex binding differential signal” value stood at 765 ± 360 (MCF7), 247 ± 880 (MCF10A), 514 ± 290 (MDA-MB-231) and 83 ± 1100 (T47D).

On to yESPYA [SYK_348/A1], for which the “GRB2 complex binding differential signal” value is, setting by setting: (MCF7) 6870 ± 690; (MCF10A) 4030 ± 1000; (MDA-MB-231) 5070 ± 670; (T47D) 3470 ± 1400.

Regarding yKAQTH [SYK_526/A1], the “GRB2 complex binding differential signal” value is, setting by setting: (MCF7) 2340 ± 540; (MCF10A) 3810 ± 390; (MDA-MB-231) 649 ± 440; (T47D) 958 ± 890.

yATQLQ [STAT5A_90/A1]: the “GRB2 complex binding differential signal” value runs as follows: (MCF7) 1550 ± 1600; (MCF10A) 1430 ± 360; (MDA-MB-231) 1720 ± 790; (T47D) 1000 ± 1400.

Turning to yEPELA [SYK_323/A1], the “GRB2 complex binding differential signal” value runs as follows: (MCF7) 1090 ± 370; (MCF10A) 643 ± 270; (MDA-MB-231) 1160 ± 360; (T47D) 715 ± 1100.

Regarding ySKYYT [STAT5B_679/A1], the “GRB2 complex binding differential signal” value by setting is: (MCF7) 676 ± 350; (MCF10A) 340 ± 260; (MDA-MB-231) 792 ± 300; (T47D) 1740 ± 1000.

As for ySFPKP [SYK_296/A1], the “GRB2 complex binding differential signal” value runs as follows: (MCF7) 5060 ± 760; (MCF10A) 1610 ± 350; (MDA-MB-231) 2130 ± 660; (T47D) 1610 ± 1100.

With yPQNPD [STAT5B_743/A1], the “GRB2 complex binding differential signal” value by setting is: (MCF7) 485 ± 430; (MCF10A) 946 ± 610; (MDA-MB-231) 514 ± 360; (T47D) 802 ± 1200.

With yNMYPQ [STAT5B_740/A1], the “GRB2 complex binding differential signal” value is, setting by setting: (MCF7) -16400 ± 1800; (MCF10A) -4080 ± 960; (MDA-MB-231) 249 ± 480; (T47D) -1200 ± 1400.

Take ySRVQY [BCAR3_212/A1]: the “GRB2 complex binding differential signal” value (MCF7) turned out to be 1920 ± 540, the “GRB2 complex binding differential signal” value (MCF10A) was 493 ± 300, the “GRB2 complex binding differential signal” value (MDA-MB-231) was 749 ± 390 and the “GRB2 complex binding differential signal” value (T47D) was 1370 ± 1100.

Consider yYKFSS [SYK_546/A1], for which the “GRB2 complex binding differential signal” value by setting is: (MCF7) 365 ± 300; (MCF10A) -19.3 ± 190; (MDA-MB-231) 768 ± 280; (T47D) 1280 ± 850.
